Assay results reported in patent publication US20040209363A1 (published 2004).

Target: human 4-1BB (CD137) on human T cells (human, UniProt Q07011 24-255)
Assay: cell-based or functional assay

Sequence of UniProt Q07011 (Q07011 24-255): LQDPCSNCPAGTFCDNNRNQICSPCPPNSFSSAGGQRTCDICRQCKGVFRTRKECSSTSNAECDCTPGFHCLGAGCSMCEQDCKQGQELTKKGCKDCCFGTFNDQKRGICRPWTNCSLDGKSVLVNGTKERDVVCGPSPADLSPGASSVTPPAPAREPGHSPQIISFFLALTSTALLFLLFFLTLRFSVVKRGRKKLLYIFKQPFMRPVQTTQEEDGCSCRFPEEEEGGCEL

B1: human 4-1BB ligand (full length), expressed on transfected P815 cells (ligand)
chain: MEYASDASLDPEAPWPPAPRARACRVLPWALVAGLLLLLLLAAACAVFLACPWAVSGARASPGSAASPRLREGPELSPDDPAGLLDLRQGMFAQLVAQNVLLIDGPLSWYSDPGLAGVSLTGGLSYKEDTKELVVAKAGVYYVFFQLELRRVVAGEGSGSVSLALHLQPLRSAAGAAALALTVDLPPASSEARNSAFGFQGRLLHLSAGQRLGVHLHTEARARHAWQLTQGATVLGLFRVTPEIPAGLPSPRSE
- expansion of CD4 and CD8 T cell populations in total T cell cultures stimulated with P815-4-1BBL plus OKT3 (viable cell count, 5 days): ~2 fold
- expansion of sorted CD28+ and CD28- T cells (viable cell count after 5 or 6 days): 2 fold
